MIC of clinical N. gonorrhoeae isolates (2015-2017) by agar dilution on GC agar with 1% IsoVitaleX (ranges not stated); higher = less susceptible. No active / inactive call per row; the paper counts benzylpenicillin above 1 and ceftriaxone above 0.125 mg/L as resistant (EUCAST). The method is stated for benzylpenicillin and ceftriaxone and assumed for the other drugs. '<=' is inferred from pile-ups at the end values. Isolates are numbered anew.
Assays:
Test in all cases: Agar dilution on enriched GC agar; resistance determinants by microarray.
spectinomycin = compound: CN[C@@H]1[C@H](O)[C@H](NC)[C@H]2O[C@@]3(O)C(=O)C[C@@H](C)O[C@H]3O[C@@H]2[C@H]1O [spectinomycin]
benzylpenicillin = compound: CC1(C)S[C@@H]2[C@H](NC(=O)Cc3ccccc3)C(=O)N2[C@H]1C(=O)O [benzylpenicillin]
tetracycline = compound: CN(C)[C@@H]1C(O)=C(C(N)=O)C(=O)[C@@]2(O)C(O)=C3C(=O)c4c(O)cccc4[C@@](C)(O)[C@H]3C[C@@H]12 [tetracycline]
azithromycin = compound: CC[C@H]1OC(=O)[C@H](C)[C@@H](O[C@H]2C[C@@](C)(OC)[C@@H](O)[C@H](C)O2)[C@H](C)[C@@H](O[C@@H]2O[C@H](C)C[C@H](N(C)C)[C@H]2O)[C@](C)(O)C[C@@H](C)CN(C)[C@H](C)[C@@H](O)[C@]1(C)O [azithromycin]
ceftriaxone = compound: CO/N=C(\C(=O)N[C@@H]1C(=O)N2C(C(=O)O)=C(CSc3nc(=O)c(O)nn3C)CS[C@H]12)c1csc(N)n1 [ceftriaxone]

Row | Test System | MIC (spectinomycin) | MIC (benzylpenicillin) | MIC (tetracycline) | MIC (azithromycin) | MIC (ceftriaxone)
1 | Neisseria gonorrhoeae isolate 6 (blaTEM plasmid: no, gyrA: Phe91, Asn95, mtrR promoter: -35delA, parC: Ser87, Gly91, penA: ins345Asp, ponA: Pro421, porB: wild type, rpsJ: Met57, tetM plasmid: no) | 16 µg/mL | 0.03 µg/mL | 0.25 µg/mL | 0.03 µg/mL | ≤ 0.002 µg/mL
2 | Neisseria gonorrhoeae isolate 57 (blaTEM plasmid: no, gyrA: wild type, mtrR promoter: wild type, parC: wild type, penA: ins345Asp, ponA: Pro421, porB: Asn120, Asp121, rpsJ: Met57, tetM plasmid: no) | 16 µg/mL | 1 µg/mL | 2 µg/mL | 0.25 µg/mL | 0.015 µg/mL
3 | Neisseria gonorrhoeae isolate 259 (blaTEM plasmid: no, gyrA: wild type, mtrR promoter: wild type, parC: wild type, penA: ins345Asp, ponA: wild type, porB: wild type, rpsJ: wild type, tetM plasmid: no) | 16 µg/mL | 0.03 µg/mL | 0.25 µg/mL | 0.06 µg/mL | ≤ 0.002 µg/mL
4 | Neisseria gonorrhoeae isolate 2 (blaTEM plasmid: yes, gyrA: Phe91, Ala 95, mtrR promoter: wild type, parC: Asn 87, Lys91, penA: ins345Asp, ponA: Pro421, porB: Asp120, Ala121, rpsJ: wild type, tetM plasmid: yes) | 16 µg/mL | 16 µg/mL | 32 µg/mL | 0.06 µg/mL | 0.015 µg/mL
5 | Neisseria gonorrhoeae isolate 167 (blaTEM plasmid: no, gyrA: Thr 91, Asp95, mtrR promoter: wild type, parC: wild type, penA: ins345Asp, ponA: wild type, porB: Gly120, Asp121, rpsJ: wild type, tetM plasmid: no) | 32 µg/mL | 0.12 µg/mL | 0.5 µg/mL | 0.25 µg/mL | ≤ 0.002 µg/mL
6 | Neisseria gonorrhoeae isolate 475 (blaTEM plasmid: no, gyrA: Thr91, Gly95, mtrR promoter: wild type, parC: wild type, penA: ins345Asp, ponA: wild type, porB: wild type, rpsJ: wild type, tetM plasmid: no) | 16 µg/mL | 0.12 µg/mL | 0.12 µg/mL | 0.06 µg/mL | ≤ 0.002 µg/mL
7 | Neisseria gonorrhoeae isolate 157 (blaTEM plasmid: no, gyrA: Phe91, Gly95, mtrR promoter: -35delA, parC: Arg87, Glu91, penA: ins345Asp, ponA: Pro421, porB: Asn120, Asp121, rpsJ: Met57, tetM plasmid: no) | 32 µg/mL | 0.25 µg/mL | 0.25 µg/mL | 0.03 µg/mL | 0.004 µg/mL
8 | Neisseria gonorrhoeae isolate 310 (blaTEM plasmid: no, gyrA: Thr91, Gly95, mtrR promoter: -35delA, parC: Arg87, Glu91, penA: ins345Asp, ponA: Pro421, porB: wild type, rpsJ: Met57, tetM plasmid: no) | 32 µg/mL | 1 µg/mL | 1 µg/mL | 0.5 µg/mL | 0.015 µg/mL
9 | Neisseria gonorrhoeae isolate 380 (blaTEM plasmid: no, gyrA: Phe91, Gly95, mtrR promoter: -35delA, parC: Arg87, Glu91, penA: ins345Asp, ponA: Pro421, porB: Lys 120, Gly121, rpsJ: Met57, tetM plasmid: no) | 16 µg/mL | 0.5 µg/mL | 2 µg/mL | 1 µg/mL | 0.015 µg/mL
10 | Neisseria gonorrhoeae isolate 274 (blaTEM plasmid: no, gyrA: Phe91, Asn95, mtrR promoter: -35delA, parC: wild type, penA: ins345Asp, ponA: Pro421, porB: Asn120, Asp121, rpsJ: Met57, tetM plasmid: no) | 8 µg/mL | 1 µg/mL | 0.5 µg/mL | 0.12 µg/mL | 0.008 µg/mL
11 | Neisseria gonorrhoeae isolate 203 (blaTEM plasmid: no, gyrA: Phe91, Asn95, mtrR promoter: -35delA, parC: Arg87, Glu91, penA: ins345Asp, ponA: Pro421, porB: wild type, rpsJ: Met57, tetM plasmid: no) | 32 µg/mL | 1 µg/mL | 1 µg/mL | 1 µg/mL | 0.008 µg/mL
12 | Neisseria gonorrhoeae isolate 268 (blaTEM plasmid: no, gyrA: wild type, mtrR promoter: wild type, parC: wild type, penA: wild type, ponA: wild type, porB: wild type, rpsJ: wild type, tetM plasmid: no) | 16 µg/mL | ≤ 0.015 µg/mL | 1 µg/mL | 0.12 µg/mL | ≤ 0.002 µg/mL
13 | Neisseria gonorrhoeae isolate 336 (blaTEM plasmid: no, gyrA: wild type, mtrR promoter: wild type, parC: wild type, penA: wild type, ponA: wild type, porB: wild type, rpsJ: wild type, tetM plasmid: no) | 32 µg/mL | ≤ 0.015 µg/mL | 0.25 µg/mL | 0.12 µg/mL | ≤ 0.002 µg/mL
14 | Neisseria gonorrhoeae isolate 141 (blaTEM plasmid: no, gyrA: wild type, mtrR promoter: wild type, parC: wild type, penA: ins345Asp, ponA: wild type, porB: wild type, rpsJ: wild type, tetM plasmid: no) | 16 µg/mL | 0.06 µg/mL | 0.12 µg/mL | 0.06 µg/mL | ≤ 0.002 µg/mL
15 | Neisseria gonorrhoeae isolate 422 (blaTEM plasmid: no, gyrA: Phe91, Asn95, mtrR promoter: -35delA, parC: Arg87, Glu91, penA: ins345Asp, ponA: Pro421, porB: wild type, rpsJ: Met57, tetM plasmid: no) | 16 µg/mL | 1 µg/mL | 1 µg/mL | 0.5 µg/mL | ≤ 0.002 µg/mL
16 | Neisseria gonorrhoeae isolate 346 (blaTEM plasmid: no, gyrA: Phe91, Asn 95, mtrR promoter: -35delA, parC: wild type, penA: ins345Asp, ponA: wild type, porB: Asn120, Asp 121, rpsJ: Met57, tetM plasmid: no) | 16 µg/mL | 2 µg/mL | 4 µg/mL | 0.5 µg/mL | 0.03 µg/mL
17 | Neisseria gonorrhoeae isolate 132 (blaTEM plasmid: no, gyrA: Phe91, Asn95, mtrR promoter: -35delA, parC: Arg 87, Glu91, penA: ins345Asp, ponA: Pro421, porB: Lys120, Asn121, rpsJ: Met57, tetM plasmid: no) | 16 µg/mL | 0.25 µg/mL | 2 µg/mL | 0.5 µg/mL | 0.032 µg/mL
18 | Neisseria gonorrhoeae isolate 293 (blaTEM plasmid: no, gyrA: Thr91, Gly95, mtrR promoter: wild type, parC: wild type, penA: ins345Asp, ponA: wild type, porB: Asp120, Gly121, rpsJ: Met57, tetM plasmid: no) | 32 µg/mL | 1 µg/mL | 1 µg/mL | 0.5 µg/mL | 0.015 µg/mL
19 | Neisseria gonorrhoeae isolate 432 (blaTEM plasmid: no, gyrA: Thr91, Gly95, mtrR promoter: wild type, parC: wild type, penA: ins345Asp, ponA: wild type, porB: wild type, rpsJ: wild type, tetM plasmid: no) | 4 µg/mL | 0.03 µg/mL | 0.5 µg/mL | 0.12 µg/mL | 0.004 µg/mL
20 | Neisseria gonorrhoeae isolate 173 (blaTEM plasmid: no, gyrA: wild type, mtrR promoter: wild type, parC: wild type, penA: wild type, ponA: wild type, porB: wild type, rpsJ: wild type, tetM plasmid: no) | 32 µg/mL | ≤ 0.015 µg/mL | 0.5 µg/mL | 0.03 µg/mL | ≤ 0.002 µg/mL
21 | Neisseria gonorrhoeae isolate 218 (blaTEM plasmid: no, gyrA: wild type, mtrR promoter: wild type, parC: wild type, penA: ins345Asp, ponA: wild type, porB: wild type, rpsJ: wild type, tetM plasmid: no) | 8 µg/mL | ≤ 0.015 µg/mL | 0.12 µg/mL | 0.015 µg/mL | ≤ 0.002 µg/mL
22 | Neisseria gonorrhoeae isolate 177 (blaTEM plasmid: no, gyrA: Phe91, Asn 95, mtrR promoter: -35delA, parC: wild type, penA: ins345Asp, ponA: Pro421, porB: Asn120, Asp121, rpsJ: Met57, tetM plasmid: no) | 16 µg/mL | 2 µg/mL | 2 µg/mL | 0.12 µg/mL | 0.015 µg/mL
23 | Neisseria gonorrhoeae isolate 462 (blaTEM plasmid: no, gyrA: Phe91, Asn95, mtrR promoter: -35delA, parC: wild type, penA: ins345Asp, ponA: Pro421, porB: Asn120, Asp121, rpsJ: Met57, tetM plasmid: no) | 16 µg/mL | 0.5 µg/mL | 1 µg/mL | 0.25 µg/mL | 0.015 µg/mL
24 | Neisseria gonorrhoeae isolate 153 (blaTEM plasmid: yes, gyrA: Phe91, Asn 95, mtrR promoter: wild type, parC: Asn87, Lys91, penA: ins345Asp, ponA: wild type, porB: wild type, rpsJ: Met57, tetM plasmid: yes) | 16 µg/mL | ≥ 32 µg/mL | 64 µg/mL | 0.06 µg/mL | 0.015 µg/mL
25 | Neisseria gonorrhoeae isolate 103 (blaTEM plasmid: no, gyrA: wild type, mtrR promoter: wild type, parC: wild type, penA: wild type, ponA: wild type, porB: wild type, rpsJ: wild type, tetM plasmid: no) | 32 µg/mL | 0.12 µg/mL | 0.25 µg/mL | 0.004 µg/mL | ≤ 0.002 µg/mL
